Source: the RNAGym collection of RNA variant scans (doi:10.1093/nar/gkz1192)
The source gives no read counts; variants with many changes may rest on few reads.

B1: CPEB3 Ribozyme (parent)
chain: UAACAGGGGGCCACAGCAGAAGCGUUCACGUCGCAGCCCCUGUCAGAUUCUGGUGAAUCUGCGAAUUCUGCUGUAUAUCUC

Variants of: B1
Experiment: self-cleavage, relative activity (ratio to wild type); higher = more cleavage; in vitro, sequencing
Summary of the method: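 Relative activity compares each variant's cleaved/total read fraction with that of the unmutated ribozyme. To get these fractions, barcoded CPEB3 ribozyme libraries from rounds of error-prone PCR were transcribed with T7 RNA polymerase for 5 hours at 37°C and then given 15 min of DNase I treatment before EDTA was added. The RNAs were reverse transcribed with template switching and sequenced on Illumina, and DNA sequencing linked barcodes to variants. A minimum of 5 reads applied, and three batches were averaged.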

Variant | self-cleavage
A5G A47U A56U U58C U80C | 0.05
A5G A35U G63A A64U U66C U67C U78C | 0.07
A5G A28U U41A | 0.34
A5G A28U U41C | 0.35
A5G C17U A18U U72C A75G U78A | 0.27
A5G G8U U66C A77G | 0.18
A5G C34G A56G G70A U72C | 0.2
A5G C11U U72C | 0.25
A5G C32U U43C A57G U69C A75G | 0.03
A5G C23G A45G A75G | 0.18
A5G A47U U48C C71A U78A | 0.05
A5G C12A A45U A65G | 0.08
A5G G8U A35U U41C A56G U69C | 0.19
A5G C32U A47U | 0.5
A5G G8A A13U C38G | 0.34
A5G A35G U41C A65G | 0.44
A5G A35G A64G U67C U80A | 0.28
A5G C23U U54C U67A | 0.09
A5G A28G U43C U60A C79U | 0.13
A5G G7U A21G U60C A77G | 0.02
A5G G7U G19U U26C U72C | 0.2
A5G A47U U48C A65G U80C | 0.16
A5G C29U C40A U76C | 0.62
A5G A35G G36C U60A | 0.76

Variant | self-cleavage
A5G C12G A35U U51C U58A U69C | 0.07
A5G A45G U58A U76C U78G | 0.36
A5G A45G A56U U78C | 0.21
A5G A57G U72C | 0.75
A5G G6A A21G A56G U69C | 0.08
A5G C11U A15U A47G U72C | 0.14
A5G G6A A20G G30C U31C | 0.08
A5G G8C A35C A45U A64G U80G | 0.06
A5G C38A U60A | 0.35
A5G C34U C50U U66A A75U | 0.09
A5G C11U U51C G61A U74C | 0.14
A5G A45U U51A C62A U69C U72A U74A | 0.07
A5G A35G U66C U74C U80C | 1.05
A5G A57G U60C | 0.43
A5G C29U A64G U80C | 0.74
A5G A47U A56U A64G | 0.1
A5G G7C A20C U43A A56G | 0
A5G C11G U41A A65U | 0.07
A5G A47U U48C U67C U69A | 0.24
A5G C40U U54C U60A | 0.44
A5G C11U G24A U25A A77G | 0.08
A5G C29U G52A A56G A57G | 0.09
A5G A35G A45U | 0.38
A5G A35C U43C U60C U78C | 0.06

Variant | self-cleavage
A5G C17G A18U U51A U60C U78C | 0.03
A5G G6A A57G | 0.1
A5G A28U A35U G53C A56G U60A | 0.12
A5G A28U U41A U72C U78C | 0.43
A5G C11G A15U A57G U78A | 0.14
A5G C38A U43C U51C A65G U69C | 0.04
A5G C11A A35U U74C | 0.31
A5G A35G U54C U60C | 0.39
A5G C14A C27G A45G | 0.33
A5G A28U G33U U49C | 0.23
A5G G8A A13G C40U U41A A57G C81U | 0.04
A5G A35G U78C | 1.15
A5G C14G A35U U60A | 0.27
A5G C12U A15G C17U A56U | 0.2
A5G G6A C23U U31C | 0.25
A5G C17U U60C U72A | 0.17
A5G C27A U31A U80A | 0.09
A5G C17U A28U A47G U66C | 0.3
A5G A57G C62G U67C | 0.25
A5G C17U U25C A45G G73A | 0.54
A5G C14A A47U | 0.48
A5G G6A A15U G42A U51A U72C | 0
A5G G6U U49C U51A U80C | 1
A5G C50A A57G U66A | 0.27

Variant | self-cleavage
A5G A35U U60C A64G | 0.18
A5G C12U U25C | 0.24
A5G C40A U43C U80C | 0.22
A5G A56G U60C A65U U80C | 0.16
A5G A35G U66C U74C | 0.97
A5G C12U G24U U26C A45U U54C U67A | 0
A5G C12G U58C A65G | 0.06
A5G G8A A35C U58C U69C U78A | 0.2
A5G C11G A75G | 0.58
A5G A28G U60C | 0.16
A5G G8C U26C U67C U72C | 0.07
A5G C27G G33A U49G | 0.07
A5G C11G U51C A57G A65U | 0.09
A5G A65U C68A | 0.17
A5G A35U U78A | 0.35
A5G C27A U49C U78C | 0.24
A5G A47G U60A U72A U80C | 0.13
A5G A28U A47G A57G U69C A77U | 0.1
A5G G8A A28U C38A | 0.08
A5G A45U U49C A65U | 0.21
A5G C14G G24A U31A A56U U72C | 0.07
A5G C37G A56U | 0.45
A5G G8A U25C A57G U74C A75G | 0.45
A5G G8U U54A | 0.74

Variant | self-cleavage
A5G G6A C27U U41A | 0.1
A5G C23U A35G U54C U60C A65U U67C | 0.22
A5G A56G U58C | 0.33
A5G G8A A18G A21G A45C G70U A75G | 0.05
A5G G8A C17U A20G U49A A56G C79U | 0.05
A5G A64G U72C | 0.75
A5G G8A A15G C39G U43C U60C | 0.05
A5G C29U A64G | 0.42
A5G C23U U31C | 0.08
A5G C32A A45C A75U | 0.1
A5G C37G U60C C62G | 0.12
A5G C17G A56G A77U | 0.07
A5G G8A A28U U54C U78A | 0.47
A5G A45G A47G C50G U67C | 0.06
A5G A35G A64C | 0.34
A5G A45G U49A A57G U69C | 0.29
A5G G7A U25G C40U U80C | 0.34
A5G G7A U41C C44G U51C U78C | 0.07
A5G G8A G10C A56G U76C | 0.06
A5G C59U A64G | 0.15
A5G A28U C40U U58C U66C A77G | 0.17
A5G A56U A65G | 0.23
A5G C27A U66C C71A | 0.14
A5G A47C U51C | 0.12

Variant | self-cleavage
A5G G8C A18G U80A | 0.41
A5G A47G U66A | 0.59
A5G A56U U60C U80C | 0.05
A5G C23U U41C | 0.24
A5G A57G U60C A64G | 0.11
A5G G6U A20G U78C | 0.14
A5G A56G U69C U72C | 0.24
A5G C40A U41C | 0.75
A5G A47G A57C | 0.11
A5G C29U G63A | 0.73
A5G A35G C37A A75G | 0.44
A5G G7A A47C A56U U72C | 0.08
A5G G7A A15U U72C | 0.37
A5G A57G A64G U72G | 0.32
A5G C37G C38U A57G A64U | 0.09
A5G A35U U58A U66C | 0.05
A5G G7A A18U G36U | 0.04
A5G A28G U58A C59A | 0.1
A5G G6A U43C U60C A75G U80C | 0.12
A5G G7C A28U | 0.47
A5G A64C A77G | 0.12
A5G G6A U48C | 0.35
A5G C12U A15U C38U U51G | 0.8
A5G A45U U49C G55A U58C C68A | 0.04

Variant | self-cleavage
A5G G6A U60C U78C | 0.37
A5G A45G A75G | 0.52
A5G C29A C34U U43C U49C | 0.25
A5G C17G U26A A35G A45G G52A U66C | 0.15
A5G G8U U41C C44G | 0.06
A5G C11G U43C G73U | 0.34
A5G G7A U26C C39U A45G U60A U69A | 0.05
A5G G7U G9C G16C U43A U66C | 0.23
A5G A64G U80A | 0.48
A5G C11G A20U C23G U49A A56G | 0.05
A5G C14G A65U | 0.35
A5G A56G A64U | 0.1
A5G A35G C37A A64G C81A | 0.72
A5G G7C U43A U49C | 0.1
A5G G6A U66C C81U | 0.08
A5G G6A A56G U69C | 0.18
A5G G6U C37A U54C C71U U72C | 0.05
A5G C40U U67C U69C U72C | 0.14
A5G A45U G63A U67C | 0.22
A5G G7C A28U U51A U54C U60C A75G | 0.14
A5G C12G U25C U69A | 0.26
A5G C50A A57G U58A | 0.27
A5G C40A U41C A64G U69G U72A | 0.06
